Test results from publication PMC6611761, “A novel motif in the proximal C-terminus of Pannexin 1 regulates cell surface localization” (Scientific Reports, 2019).

Target: the molecule itself
Assay: cross-linking; intact transfected HEK293T cells, 20 μg/mL cycloheximide for 8 h beforehand; 3 mM cell-impermeable BS3 in crosslinking buffer (20 mM PBS, 1 mM CaCl2, 0.5 mM MgCl2, pH 8) for 30 min on ice; lysates on 4-20% gradient SDS-PAGE, Western blot for GFP; shows surface-localized oligomers

B1: Panx1-EGFP (mouse Pannexin 1, full length, EGFP-tagged) (natural protein)
chain: MAIAHLATEYVFSDFLLKEPTEPKFKGLRLELAVDKMVTCIAVGLPLLLISLAFAQEISIGTQISCFSPSSFSWRQAAFVDSYCWAAVQQKSSLQSESGNLPLWLHKFFPYILLLFAILLYLPALFWRFSAAPHLCSDLKFIMEELDKVYNRAIKAAKSARDLDLRDGPGPPGVTENVGQSLWEISESHFKYPIVEQYLKTKKNSSHLIMKYISCRLVTFVVILLACIYLSYYFSLSSLSDEFLCSIKSGVLKNDSTIPDRFQCKLIAVGIFQLLSLINLIVYALLIPVVVYTFFIPF[about 120 residues left out]
notes: Pannexin 1 (Panx1), mouse, NCBI NP_062355.2, full length; The vector pEGFP-N1 is named for the deletion mutants and places EGFP after the insert, so the tag is probably C-terminal; The protein is N-glycosylated (Gly0, Gly1, Gly2 species); also called full length Panx1-EGFP; wildtype Panx1; source: HEK293T, transfected (PEI), on cells, then in lysate
**Q.** With B1 as the protein, how does the “stoichiometry N” value read?
**A.** The value was 6.
